In the supplement of paper PMC11417369:
This is one part of the list.

These sequences were tested on PfSIP2 AP2 domain 1 (GST-tagged) (assay: gcPBM binding intensity (ln(normalized median fluorescence intensity)); higher = stronger DNA binding).
Procedure, shortened: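 Using an Agilent 4 × 180k array, primer-extended double-stranded 36-bp intergenic genomic probes and negative controls were exposed for 1 h to GST-fused P. falciparum DNA-binding domains expressed in E. coli. Binding was carried out in 1× PBS with 1% milk, 0.2 mg/ml BSA, 0.5% salmon testes DNA and 0.03% Triton X-100, and protein was detected with Alexa488 anti-GST antibody and a 488 nm scan. Binding intensity is the highest Masliner-normalised natural-log median intensity across replicate spots of either probe orientation.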

| Sequence | gcPBM binding intensity (ln) |
| --- | --- |
| ATAATGTAAAATAAATGTACGCAATATATAAAAAAT [XGTACX_site5747] | 7.26 |
| TATTATGTTTATTAAACATGCATATATTTATTTATA [TGCATGCA_site187] | 6.88 |
| ATATTTTATCATGTTTAATATTTATGTGGACATAAA [GTGCAC_negctrl_site275] | 6.98 |
| ACATTTTATATATGTAGTACATATTATAGATAATTT [XGTACX_site1976] | 7.24 |
| AGTTGGATACGAAGATGTACAATAATAATAATTAAG [XGTACX_site3561] | 7.16 |
| ATCAAAAACATACCTACACACACAATATGTATATAT [CACACA_site9171] | 7.05 |
| TATTTTATTTTTTTATGTACACAAAAAAAAAAAAAA [XGTACX_site945] | 7.35 |
| TCACTATAATAATTTACACACATTTTAAGAAAATGG [CACACA_site5867] | 6.95 |
| GCTTATTAATATCATACACACATAGATATATTTATA [CACACA_site3104] | 7.21 |
| AATATATAAATGTTGTGTACTAAGCAATATATTTTA [XGTACX_site2483] | 6.94 |
| ATTCGTCACATTTTTTGATATATATATATATATATA [CACACA_negctrl_site1785] | 9.68 |
| TAAAAAATATAAACTGCACACACACTAATAAAGAAA [CACACA_site8119] | 7.37 |
| ATATAGTTGTCATATTGTACACTTTAGGGTTGGTTA [XGTACX_site7339] | 6.81 |
| CTATTATCGGTTCCTACACACAAATATATATGTCTA [CACACA_site3579] | 7.29 |
| TACAATCCATATTGTTGTACATTTATAAAATTTACA [XGTACX_site3053] | 6.89 |
| CAATGGTACATACATACACACACACTAATAAAAAAA [CACACA_site8450] | 7.02 |
| GTATATATATAAGAAGAAATATATAAATAAAATATA [CACACA_negctrl_site503] | 6.96 |
| AAGATATGAACATTTTGTACTTAAAAATTCAATATT [XGTACX_site7103] | 6.87 |
| CACAGACACGGACACACACACATATATAATATATAT [CACACA_site4495] | 7.3 |
| GATTATACAAAATATACACACGTGTACAGAAATATT [CACACA_site8305] | 7.09 |
| ATATATTTATTTATATGTACATATTATATATTATAG [XGTACX_site3371] | 7.07 |
| TTATATTAATTTTGTTGTACTATTTGTGCATTAAAT [XGTACX_site4790] | 7.42 |

| Sequence | gcPBM binding intensity (ln) |
| --- | --- |
| TTTATATAAAATTATTGTACAGTTTTAATATTTTAA [XGTACX_site6807] | 6.98 |
| AAGGATAATATATTAGAACACACATATATATGTAAA [CACACA_site7942] | 6.98 |
| TACATACACAAATACACACACAAATACATACACAAA [CACACA_site704] | 7.18 |
| TAAACAAATAAATATTGTACATTTTTTCCTTTTAAT [XGTACX_site5594] | 6.67 |
| AAAAAATAAAACATATATAATATATAATATATATAT [GTGCAC_negctrl_site447] | 8.32 |
| AATGTGAAAACGTGTACACATTTTATTTAATTTATC [CACACA_site5966] | 6.83 |
| ATAAATTATATTATTGAACACACGTTTGGTAATGTT [CACACA_site2662] | 6.9 |
| AAAAAAATAATAAAAAGTACAAAATGTAGAAAATGT [XGTACX_site5018] | 7.45 |
| TTTATTAATTTATAGTGTACATATTAATAATATATT [XGTACX_site7949] | 7.11 |
| ATATATATTATATATTGTACATATTATATTCATTAT [XGTACX_site1766] | 7.3 |
| CCTAGAAAAAAGAACTGTACATATATATATAAATAT [XGTACX_site1680] | 6.87 |
| ATAAATAAAAATAGAACACACATATGTTTTTTTTTT [CACACA_site3556] | 6.91 |
| TTAATTGAAACTTATTGTACTTTTTTTTTTTTTTTT [XGTACX_site8162] | 7.6 |
| ATATGCAGAGACTGTTTGCACTTTTTTATTTTATGT [GTGCAC_site9695] | 8.52 |
| TGAAAAAATATAATTTGTACATATCAGGCAAAAATG [XGTACX_site1824] | 7.02 |
| AGGACAAGGGTTACATGTACATATATATATATATAT [XGTACX_site901] | 9.4 |
| AAGTTATTTATATATACACACAAATATAAATAATAT [CACACA_site1228] | 7.07 |
| CTCAAATTTATTAGTGGTACATAACCAAGGAAATAA [XGTACX_site225] | 6.97 |
| ATTATAATTACTCTAGTGCATTATAAATATGAATAA | 7.69 |
| TTTATGTAGGAACTAACACACATTGTAAGATTCAGA [CACACA_site1998] | 6.74 |
| GGAACTTTTGGAGGTGCATGCGGAGCAATCTTTTCA [TGCATGCA_site454] | 10.6 |
| TTATTAATTTATAAATGTACGAATTTTTTATTTAAC [XGTACX_site7605] | 7.04 |

| Sequence | gcPBM binding intensity (ln) |
| --- | --- |
| CATATCAATAATATCACACATATATGTGATTTTATT [CACACA_site5053] | 6.93 |
| CCCCTTAATTAAAGGAGTACTATTTGTGAATAATAT [XGTACX_site4715] | 7.47 |
| TATTAATAATTAAGTTGTACATTAATTAATATACTG [XGTACX_site6994] | 6.82 |
| TTTAATATTAATAATTGTACATTTTCATAAATACGC [XGTACX_site2837] | 7.11 |
| TTTAAACCTTAATATTGTACGCAAAAAAAAAAAGAA [XGTACX_site3757] | 7.15 |
| AAAATATAAATTCATGTGCACATATATATTTTGTTA [GTGCAC_site9782] | 8.24 |
| AGGAAAAAATCGAGTAGTACACATTTAGAAATATAA [XGTACX_site8019] | 7.06 |
| ATATCACATATATATATATATATATATATATATATA [XGTACX_negctrl_site463] | 9.31 |
| AACAAGGCCCGGTACTGTACATTTTTTCATAACATT [XGTACX_site6134] | 7.01 |
| TATATACATATATACACACACATATATTATATATAT [CACACA_site275] | 7.62 |
| GTATGTATATTTATCTGTACATATTTATGTATTCTT [XGTACX_site2112] | 6.9 |
| TATAAATATAAAAGGAGTACAAATATATATATATAT [XGTACX_site1386] | 9.22 |
| AGTTATAATAAAAAATGTACGTATTATCATTAAGAA [XGTACX_site4244] | 7.14 |
| TTTTTTTTTATAGCTAAACACACATAAGAATATATG [CACACA_site8282] | 6.87 |
| TCCTAATATATGTATGCACACACAATATATACATAT [CACACA_site9111] | 7.36 |
| GAAAATAAAAAATATGAACACACATATATAACAAAA [CACACA_site7975] | 6.89 |
| AAAAAAATTAAACATACACACGTTACTATTTTTATA [CACACA_site5009] | 6.89 |
| AAAATTGATATATGCACACATATATATATTAAATAT [CACACA_site763] | 7.26 |
| TTTCATTCTGGTATCACACATTTATTTTCTAGTTTA [CACACA_site4286] | 7.06 |
| AAAAAAAAAAAAAACACACATACACATATATTTTTA [CACACA_site3893] | 7.25 |
| TTGCATCTACATTTATGTACATATCTTATGATAAAT [XGTACX_site2146] | 7.03 |
| ACAATAATTTCCATCACACATATATTTATATATTAC [CACACA_site6003] | 7.19 |

| Sequence | gcPBM binding intensity (ln) |
| --- | --- |
| ATACATATTCTTATTTGTACTTATTATAAAATGGTC [XGTACX_site6584] | 7.22 |
| TAACTGATATATAAAACACACATCATAAAAATATAA [CACACA_site6499] | 6.87 |
| TTGAACCTGATAAATACACACAATATAGATTTTTTT [CACACA_site7091] | 6.88 |
| TCAAAATGTTACAAATTATGTTGGCTAAAATTTTAA [TGCATGCA_negctrl_site188] | 6.83 |
| AATTATACTCACGTTACACACACACTATATATATAT [CACACA_site9375] | 9.19 |
| TATAATATAATATTTTGTACATATGATAAAAAAAAA [XGTACX_site6858] | 7.09 |
| ACACATATAAATAAAACATGCATATGTAAATATATA [TGCATGCA_site403] | 6.95 |
| AGATATATTTTTTAAATTTAAAAATTATAAAATTTA [CACACA_negctrl_site533] | 6.8 |
| AAATATATCTTCTTTGCACACTTAAAGGGAAGTGAT [CACACA_site343] | 7.08 |
| GCATATAAAATAAATCGTACATGTAAAACATAATTA [XGTACX_site7077] | 7.15 |
| GATAGAAAAAAATAATGTACACACACATATATGTTT [XGTACX_site392] | 6.87 |
| GGCAGCAATTTAGTTACACACATATATAGGTATACA [CACACA_site76] | 7.23 |
| TTTCTTTTTTCTGTTATTATTATAAAACGATATTTA [TGCATGCA_negctrl_site167] | 6.99 |
| TACACATACCCATACACACGCATAGAAACATACGAA [CACACA_site5212] | 7.29 |
| TATTTTTATTTTAATTGTACTTTTTAATTAATAATA [XGTACX_site8302] | 7.27 |
| TTTTTTTTTTTTATATGTACTAATAATCTTTTTTTT [XGTACX_site3552] | 6.96 |
| AATATTTTATATGTAGTGCATTACTATAGGATTTAT [GTGCAC_site9424] | 9.45 |
| GCTGAAAGGATAAAGGTGCATATTTTTTAAAAAATT [GTGCAC_site9487] | 11.2 |
| TGTGTCAAATAATTAATGTCATATATATTTTGTATA [CACACA_negctrl_site1479] | 6.95 |
| TGCTTATATCTTATAATATTTATACATCATAATAAG [CACACA_negctrl_site629] | 7.03 |
| ACAAAATAAACGGCTGCACACAAGAAGCACAATATT [CACACA_site3690] | 7.26 |
| AATATATGGTTTCATGATATTAAATACAATTTAATG [CACACA_negctrl_site1503] | 6.75 |
